From the RNAGym collection of RNA variant scans (doi:10.7554/elife.90254)
The source gives no read counts; variants with many changes may rest on few reads.

B1: LINE1-mini (parent)
chain: GGCAGAGCUCAACACAGCGUGGCAAAGUGGCUGUGGCUAGACUGCC

Variants of: B1
Experiment: self-cleavage, relative activity (ratio to wild type); higher = more cleavage; in vitro, sequencing; the parent is a self-cleaving ribozyme

Variant | self-cleavage
GGCAGAGCUCGACCCAGCGUCGCAAAGUGGCUGUGGCUAGACUGCC | 0
GGCAGAGCUCCACACAGCGUGGCAAAUCGGCUGUGGCUAGACUGCC | 0.01
GGCAGAGCUCCACACAGCGUGUCACAGUGGCUGUCGAUAGACUGCC | 0.02
GGCAGAGCUCCACACAGCGUGGCAAAGUGUCGGUGGCGUGACUGCC | 0.02
GGCAGAGCUCCACACAGCGGGGCAAAGUGGCUGUGGAUAGACUGCA | 0.01
GGCAGAGCUCCACACAGCGUGGCAAAGUGGCAGUCGCUAGACCGCC | 0.03
GGCAGAGCUCGUCACAGCGUGGCAAAGUAGCUGUGGCUAGACUGCC | 0.01
GGCAGAGCUCCACACAGCGUGGCAAAGUGGCUCUGGCUAGACUACC | 0.02
GGCAGAGCUCGGCACAGCGUGGCAAAGUGGCAGUGGCUAGACUUCC | 0.04
GGCAGAGCUCGACGCAGCGUGGCUAUGUGGCUGAGGCUAGACUGCC | 0.03
GGCAGAGCUCGACACCGCGUGCCAAAGUGGCUGUGGCUAGACUGCC | 0.01
GGCAGAGCUCGUCACAGCGUGGCAAAGGGGCUGUGGCUAGACUACC | 0.02
GGCAGAGCUCCACACAGCGUGGCAAAGUCGCUGUGGCUAUACUGCC | 0.01
GGCAGAGCUCGACACAGCGUGGCAACGUGGCUGUGGCUACACUGCC | 0
GGCAGAGCUCGACACAGCGUGGCAUAGUGGCUGUAGCUAGACUGCC | 0
GGCAGAGCUCCACACAGCGUGGCAAAGCGGCACCGGCUAUACUGCC | 0.01
GGCAGAGCUCCACACAGCGUGGCAAAGUGGCUGUGGCGAGUCUGCC | 0.02
GGCAGAGCUCGACACCGAGUGGCAAAGUGGCUGUGGCUAGACUGCC | 0.01
GGCAGAGCUCGGCACAGCGUGGCAAAGUGGCUGCGGCUAGACUGCC | 0.02
GGCAGAGCUCCACACAGCGAGGCAAAGUGGCUGUGGCUAGACGGCC | 0
GGCAGAGCUCCACACAGCGAGGUUAAGUGGCUGUGGCUAGACUGCC | 0.04
GGCAGAGCUCGACACAGCGUGGCUAAGUGGCUGUGGCUAGAGUGCC | 0.01
GGCAGAGCUCCACACAGCGUGGCAAAGAGGUUGUGGCUAGACUGCC | 0.01

Variant | self-cleavage
GGCAGAGCUCGACACAGCGUGGCACAGUGUCUGUGGCUAGACUGCC | 0.08
GGCAGAGCUCGACACAGCGUGGCACAGUGCCUGUGGCUAGACUGCC | 0.04
GGCAGAGCUCCACACAGCGUGCGAAAGCGGCUGUGGCUAGACUGCC | 0.03
GGCAGAGCUCGACACAGCGUGGCAUAGUGGCGGUGACUAGACUGCC | 0.03
GGCAGAGCUCCACACAGCGUGGCAAAGUGGCUGCGGCUAGAUUGCC | 0.04
GGCAGAGCUCCACACAGCGUGGCAAAGGGACUGCGGCUAGACUGCC | 0.02
GGCAGAGCUCGGCACAGCAUGGCAAAGUGGCUGUGGCUAGCCUGCC | 0.03
GGCAGAGCUCCACACAGCGUGGCAAAGUGCCUGUGGAUAGACUCCC | 0
GGCAGAGCUCGACACAGCGUGGCGAAGUGGCUGUGGUUAGACUGCC | 0.01
GGCAGAGCUCGACUCAGCGUGGCAAAGUGGCUGUGCCUAGACUGCC | 0.05
GGCAGAGCUCGUCAUAGCGUGGCAAAGUGGCUGUGGCGAGACUGCC | 0
GGCAGAGCUCGACACUGCGUGGCAAAGUGGCUGUGGCUAGUCUCCC | 0.06
GGCAGAGCUCCACACAGCGUGGCAAAGUGGCUGUGGCUAAACUGCG | 0.01
GGCAGAGCUCCACACAGCGUGGCAAAGCGGCUGUGGCUAGACUGAC | 0.03
GGCAGAGCUCCACACAGCGUGGCAAAAUGGCUGUGGCUAGCCUGCC | 0.02
GGCAGAGCUCGACGCAUCGUGGCAAAGUGGCUGUUGCUAGACUGCC | 0
GGCAGAGCUCCACACAGCGUGGCAAACUGGUUGUGGCUAGACUGCC | 0
GGCAGAGCUCGCCACACCGUGGCAAAGUGCCAGUGGCUAGACUGCC | 0
GGCAGAGCUCGUCACAGCGUGGAAAAGUAGCUGUGGCUAGACUGCC | 0.04
GGCAGAGCUCGACACAGCGUGGCGAAGUGGCUGUGGCUAUACUGCC | 0.01
GGCAGAGCUCCACACAGCGUGGCAAACUGGCCGUGGCUGGACUGCC | 0.01
GGCAGAGCUCGACACAGCGUGGCAACGUUGCUGUGGCAAGACUGCC | 0.03
GGCAGAGCUCCACACAGCGUGACAAAGUGCCUGUGCCUAGACUUCC | 0.03

Variant | self-cleavage
GGCAGAGCUCGACUCAGCGUGGCAAAGUGGCUGUCGCUAGACUCCC | 0.02
GGCAGAGCUCCACACAGCGAGGAAAAGUGGCUGUGGCUAGACUGCC | 0.06
GGCAGAGCUCCACACAGCGUGGCAAAGUGGCUAUGGAUAGACUGCC | 0.02
GGCAGAGCUCGACACAGCGUGGCUAAGUGGCUGUGGCUAGACCGGC | 0.03
GGCAGAGCUCGACACAGCGUGGCAAGGUGGGUGUGGCUAGACUGCC | 0
GGCAGAGCUCGACCCAACGUGUCAAAGUGGCUGUGGCGAGACUGCC | 0.02
GGCAGAGCUCGACACUGCGUGGCGAAACGGCUGUGGCUAGACUGCC | 0.02
GGCAGAGCUCCACACAGCGUGGCAAAAUGGCUGUGGCUAGACAGCC | 0.01
GGCAGAGCUCCACACAGCGUGGCAAAGUGGCUGUGACUUGACUGCC | 0.01
GGCAGAGCUCCACACAGCGUGGCAAAGGGGCUGUUGCUAGACUGCC | 0.01
GGCAGAGCUCGAAACAGCGUGGCAAAGUGUCUGCGGCUAGAUUGCC | 0.02
GGCAGAGCUCCACACAGCGUGGCAAAGUGACUGUGGCGAGACUGCC | 0
GGCAGAGCUCGACCCAGCUUGGCAAAGUUGCUGUGGCUAGACUGCC | 0.02
GGCAGAGCUCGGCAAAGCAUGGCAAAGUGGCUGCGGCUAGACUACC | 0
GGCAGAGCUCGCCACAGCGUGGCGAAGUGGCUGGGGCUAAACUGCA | 0
GGCAGAGCUCCACACAGCGUGGCAAAUUGUCUCUGGUUAGACUGCC | 0.04
GGCAGAGCUCCACACAGCGUGGCAAAGUGGCUGUAGCUAAACUGCC | 0.03
GGCAGAGCUCCACACAGCGUGGCAAAGUGGCUGUGCCUAGACUUCC | 0.02
GGCAGAGCUCCACACAGCGCGGCAAAGUGGCUGAGGCUAGACUGCC | 0.01
GGCAGAGCUCGACACAGCGUGGCACAGUGGAUGUGGCGAGACUGCC | 0
GGCAGAGCUCCACACAGCGUGCCAAAGUGGCCGUGGCUAGACUGCC | 0.02
GGCAGAGCUCCACACAGCGUGGCAAAAUGGCUGUGGCUAGAUUGCA | 0
GGCAGAGCUCCACACAGCGUGGCAAAGUUGCUGUGGCUAGAAUGCC | 0.04

Variant | self-cleavage
GGCAGAGCUCGUCACAACGUGGCAAAGUGGCUGUGACUAGACUGCC | 0
GGCAGAGCUCCACACAGCGUGGCAAAGUGGCUGUGACUAGAGUGCC | 0.01
GGCAGAGCUCCACACAGCGUGGCAAAGUGACUGUCGCUAGACUGCC | 0.06
GGCAGAGCUCCACACAGCGUGGCAAAGUGGCUGUCGCUAGACUGCU | 0.02
GGCAGAGCUCGCCACAGCGUGGCAAAGCGGCUGUGACUAGACUGCC | 0.06
GGCAGAGCUCCACACAGCGUGGCAAAGUGUCUGUGGCUAGGCUGCC | 0.02
GGCAGAGCUCGACACAGCGUGGCACAGUGGCUGUGUCUAGACUGUC | 0.01
GGCAGAGCUCGAAACAGCGUGGCAAAGUAACUGUGGCUAGACUGCC | 0.01
GGCAGAGCUCCACACAGCGUGGCAAAGGGUCUGUGGCUAGAUUGCC | 0.01
GGCAGAGCUCGACACAGCGUGGCAUAGUGGCUGUGGCUAAACUGCC | 0.01
GGCAGAGCUCGCCACCGCGUGGCAAAGUGGCUGUGGCUAGACUGCC | 0.02
GGCAGAGCUCCACACAGCGUGGCAAACUGACUAUGGCUAGACUGCC | 0.01
GGCAGAGCUCCACACAGCGGGGCAGAGUAGCUGUGGCUAGACUGCC | 0.04
GGCAGAGCUCCACACAGCGUGACCAAGUGGAUGUGGCUAGACUGCG | 0.01
GGCAGAGCUCGACACAGCGUGGCAACGUGAGUGUGGCUAGACUGCC | 0.01
GGCAGAGCUCCACACAGCGGGGCAAAGUGGCUGUGACUAGACUGCC | 0.01
GGCAGAGCUCCACACAGCGUGGCAAAUUGGCUCAGGCUAAAUUGCU | 0.01
GGCAGAGCUCCACACAGCGUGGCAAAGUAGCUGUGUCUAGACUGCC | 0.02
GGCAGAGCUCGACACGGCGUGGCAAAGUGGCUGCGGCAAGACUGCC | 0.01
GGCAGAGCUCGACACAGCGUGGCAAGGUGGCUGUGGCUAGACUGCA | 0.04
GGCAGAGCUCGGCACUGCGUGGCAAAGUGGCUAUGGCUAGACAACC | 0
GGCAGAGCUCCACACAGCGUGGCAAAGUGGCUGCGGCUAGACUGGC | 0.02
GGCAGAGCUCCACACAGCGUGCCAAAGCGGAUGUUGCUAGACUGCC | 0.01

Variant | self-cleavage
GGCAGAGCUCCACACAGCGUGUCAAAGUGGCUGUGGCUAGACUACC | 0.01
GGCAGAGCUCCACACAGCGUGGCAAAGUGGCUGUGACUAGACAGCC | 0
GGCAGAGCUCCACACAGCGUGGCAAAGUGGCUUUGGCUACACUGCC | 0.02
GGCAGAGCUCGACACAGCGUGGCAAAGUGGCUGUGGCUAGCGUGCC | 0.04
GGCAGAGCUCCACACAGCGUGUCAAAGUGGCUGUGGCUAGAAUGCC | 0.01
GGCAGAGCUCCACACAGCGUGGCAAAGUGGCUGUGUUUAGACCGUC | 0
GGCAGAGCUCCACACAGCGGGGCAAAGAGGAUGUGGCUAGACCGCC | 0.01
GGCAGAGCUCCACACAGCGUGGCAAAGAAGCUGUAGCUAGACUGCC | 0.02
GGCAGAGCUCGGCACAGCGUGGCAAAGUGUUUGUGGCUAGACUGCC | 0.01
GGCAGAGCUCGACACAGCGUGGCAAGGUGGCUGUCGCUAGACUGCC | 0.03
GGCAGAGCUCCACACAGCGUGGCAAAGUGAAUGUGGCUAGACUGCC | 0.03
GGCAGAGCUCGAAACAGCGUGUCAAAGUGGCUGUGCCUAGCCUGCC | 0
GGCAGAGCUCGACACCGCGUAGCAAAGUGGCUUUGGAUACACUGCC | 0.01
GGCAGAGCUCCACACAGCGUGGCAAAGUGCCUGUGGAUAGACUGCG | 0
GGCAGAGCUCGACGCAGCGUGGUAAAGCGGCUGUGGCUAGACUGCG | 0.03
GGCAGAGCUCGACCCAGAGUGGCAAAGUGGCUUUGGCUAGACUGCC | 0.02
GGCAGAGCUCGGCACAGCGUGGCAAAGCGGCUGUAGCUAGACUGCC | 0.01
GGCAGAGCUCCACACAGCGUGACAAAGUGGCUAUGUCUAGACUGCG | 0
GGCAGAGCUCCACACAGCGUGGCAAAGUGUCUGUGGCUAGACGGCC | 0
GGCAGAGCUCCACACAGCGUGGCAAAGUGGCUGGGGCUAGACUGUC | 0
